The data scatter; read single values as rough.
Assay: amyloid nucleation score relative to library mode (yeast Sup35 reporter selection) (log enrichment difference); higher = more amyloid nucleation; sequences are the first 22 residues of the Bri2 peptide extended by up to 12 random residues
Conditions: random library (experiment): 1;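 active = nucleation score significantly above 0 at FDR 0.05; inactive = not significantly above 0 or absent from output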
In the case of EASNCFAIRHFENKFAVETLICFLVVRIGEEEAS, the amyloid nucleation score is reported as 6.65. EASNCFAIRHFENKFAVETLICFLWDIK gave an amyloid nucleation score of 6.06. With EASNCFAIRHFENKFAVETLICFLWVVRSGAQMG the amyloid nucleation score was “inactive”. Work on EASNCFAIRHFENKFAVETLICFM yielded an amyloid nucleation score of 7.61. EASNCFAIRHFENKFAVETLICFMC gave an amyloid nucleation score of 8.33. In the case of EASNCFAIRHFENKFAVETLICFMCNVFMYSTYD, the amyloid nucleation score is reported as 6.61. With EASNCFAIRHFENKFAVETLICFMFHSDTMGRCA the amyloid nucleation score was 3.86. For EASNCFAIRHFENKFAVETLICFMGNSEGVVCEL, the amyloid nucleation score was “inactive”. Work on EASNCFAIRHFENKFAVETLICFMLASLRRMSER yielded an amyloid nucleation score of -0.463. In the case of EASNCFAIRHFENKFAVETLICFMLSASVGGDVP, the amyloid nucleation score is reported as “inactive”. Work on EASNCFAIRHFENKFAVETLICFMLSM yielded an amyloid nucleation score of 6.06. For EASNCFAIRHFENKFAVETLICFMMFR, the amyloid nucleation score was “inactive”. For EASNCFAIRHFENKFAVETLICFMRHHTWQVQAY, the amyloid nucleation score was “inactive”. Work on EASNCFAIRHFENKFAVETLICFNARSVAIVVWS yielded an amyloid nucleation score of 0.19. EASNCFAIRHFENKFAVETLICFNCRCFSDRQRV showed an amyloid nucleation score of 8.5. In the case of EASNCFAIRHFENKFAVETLICFNGLLRSEVPRR, the amyloid nucleation score is reported as 2.42. For EASNCFAIRHFENKFAVETLICFNGVHPNWGSVR, the amyloid nucleation score was “inactive”. With EASNCFAIRHFENKFAVETLICFNMLATRSAA the amyloid nucleation score was “inactive”. EASNCFAIRHFENKFAVETLICFNNCTLDEGWLE gave an amyloid nucleation score of 7.66. In the case of EASNCFAIRHFENKFAVETLICFNRRSWEVVGMR, the amyloid nucleation score is reported as 0.384. EASNCFAIRHFENKFAVETLICFNSCQQEWLDES showed an amyloid nucleation score of 4.78. With EASNCFAIRHFENKFAVETLICFNSECMIGDLFR the amyloid nucleation score was 7.96. Work on EASNCFAIRHFENKFAVETLICFNSNYWSGSWRA yielded an amyloid nucleation score of 5.77. In the case of EASNCFAIRHFENKFAVETLICFNVFISHSTMVS, the amyloid nucleation score is reported as “inactive”. Sequence EASNCFAIRHFENKFAVETLICFNVPRIRHFTPS has an amyloid nucleation score of 4.71.

Same assay, conditions: random library (experiment): 2
For EASNCFAIRHFENKFAVETLICFLVKYHYTPGNR, the amyloid nucleation score was “inactive”. In the case of EASNCFAIRHFENKFAVETLICFLVYCQTSEPYV, the amyloid nucleation score is reported as 3.81. EASNCFAIRHFENKFAVETLICFLY showed an amyloid nucleation score of 3.83. With EASNCFAIRHFENKFAVETLICFLYCSSIQCVK the amyloid nucleation score was “inactive”. Sequence EASNCFAIRHFENKFAVETLICFLYKCYSRMFQG has an amyloid nucleation score of 0.301. In the case of EASNCFAIRHFENKFAVETLICFLYSRNFSYTFL, the amyloid nucleation score is reported as “inactive”. In the case of EASNCFAIRHFENKFAVETLICFLYTSLTYVSVE, the amyloid nucleation score is reported as “inactive”. With EASNCFAIRHFENKFAVETLICFMCNLLKVKSGS the amyloid nucleation score was “inactive”. In the case of EASNCFAIRHFENKFAVETLICFMCTSADTDSW, the amyloid nucleation score is reported as 8.54. EASNCFAIRHFENKFAVETLICFMDLSE showed an amyloid nucleation score of 5.47. With EASNCFAIRHFENKFAVETLICFMF the amyloid nucleation score was 8.4. EASNCFAIRHFENKFAVETLICFMFFYFCVYCLF gave an amyloid nucleation score of 3.83. In the case of EASNCFAIRHFENKFAVETLICFMHIVRNGITLC, the amyloid nucleation score is reported as “inactive”. Sequence EASNCFAIRHFENKFAVETLICFMIPEMFCCLFG has an amyloid nucleation score of 4.92. With EASNCFAIRHFENKFAVETLICFMKSVVSCLSLC the amyloid nucleation score was “inactive”. For EASNCFAIRHFENKFAVETLICFMLICRSYLCAW, the amyloid nucleation score was “inactive”. With EASNCFAIRHFENKFAVETLICFMLIYLFCLDGL the amyloid nucleation score was “inactive”. For EASNCFAIRHFENKFAVETLICFMREEQFIRKRS, the amyloid nucleation score was 0.654. With EASNCFAIRHFENKFAVETLICFMRV the amyloid nucleation score was “inactive”. EASNCFAIRHFENKFAVETLICFMSDLWNRGWME showed an amyloid nucleation score of 0.574. In the case of EASNCFAIRHFENKFAVETLICFMSNTIARSPAE, the amyloid nucleation score is reported as 6.21. With EASNCFAIRHFENKFAVETLICFMVMVRNRKPCC the amyloid nucleation score was “inactive”. EASNCFAIRHFENKFAVETLICFMYVCLFNWRGW showed an amyloid nucleation score of -0.482. EASNCFAIRHFENKFAVETLICFNCA gave an amyloid nucleation score of 7.86. In the case of EASNCFAIRHFENKFAVETLICFNEHR, the amyloid nucleation score is reported as “inactive”. For EASNCFAIRHFENKFAVETLICFNEYYVFNGKFG, the amyloid nucleation score was “inactive”. For EASNCFAIRHFENKFAVETLICFNFAMDMYAILD, the amyloid nucleation score was “inactive”. Work on EASNCFAIRHFENKFAVETLICFNFCSL yielded an amyloid nucleation score of 8.38. EASNCFAIRHFENKFAVETLICFNGFAQNYPDLN gave an amyloid nucleation score of 7.48. With EASNCFAIRHFENKFAVETLICFNHV the amyloid nucleation score was “inactive”. EASNCFAIRHFENKFAVETLICFNIPY gave an amyloid nucleation score of 6.01. With EASNCFAIRHFENKFAVETLICFNIS the amyloid nucleation score was 8.61. In the case of EASNCFAIRHFENKFAVETLICFNMRFVSVVAGW, the amyloid nucleation score is reported as “inactive”. EASNCFAIRHFENKFAVETLICFNMVFLG gave an amyloid nucleation score of 6.62. EASNCFAIRHFENKFAVETLICFNNCSYDAMPNW showed an amyloid nucleation score of 8.2. EASNCFAIRHFENKFAVETLICFNNMHCL gave an amyloid nucleation score of 8.82. EASNCFAIRHFENKFAVETLICFNNRTLVSNNQV gave an amyloid nucleation score of 3.87. Work on EASNCFAIRHFENKFAVETLICFNQPCLILSCSI yielded an amyloid nucleation score of 5.13. With EASNCFAIRHFENKFAVETLICFNQRCHTKDARC the amyloid nucleation score was 4.74. Work on EASNCFAIRHFENKFAVETLICFNRKASDSTSRT yielded an amyloid nucleation score of 1.18. With EASNCFAIRHFENKFAVETLICFNRLS the amyloid nucleation score was 1.08. In the case of EASNCFAIRHFENKFAVETLICFNRSPSLRYQVL, the amyloid nucleation score is reported as “inactive”. In the case of EASNCFAIRHFENKFAVETLICFNRVNCFRYVAW, the amyloid nucleation score is reported as “inactive”. With EASNCFAIRHFENKFAVETLICFNSGYTRGSQNR the amyloid nucleation score was 4.78. For EASNCFAIRHFENKFAVETLICFNSLDKLIGSSW, the amyloid nucleation score was 2.38. Sequence EASNCFAIRHFENKFAVETLICFNSQCQEYEYYG has an amyloid nucleation score of 8.22. EASNCFAIRHFENKFAVETLICFNVGIWNVCMPN showed an amyloid nucleation score of 8.08.

Same assay, conditions: random library (experiment): 3
EASNCFAIRHFENKFAVETLICFLVNEANSFSLE showed an amyloid nucleation score of 3.59. For EASNCFAIRHFENKFAVETLICFLWRRSKSVRSV, the amyloid nucleation score was “inactive”. For EASNCFAIRHFENKFAVETLICFLYYDDGFYDCR, the amyloid nucleation score was “inactive”. For EASNCFAIRHFENKFAVETLICFMEDLIRVAIRL, the amyloid nucleation score was “inactive”. For EASNCFAIRHFENKFAVETLICFMMNRNGTHRLV, the amyloid nucleation score was “inactive”. With EASNCFAIRHFENKFAVETLICFMMSRDWWKVSL the amyloid nucleation score was “inactive”. With EASNCFAIRHFENKFAVETLICFMRFTVNWVVKG the amyloid nucleation score was “inactive”. In the case of EASNCFAIRHFENKFAVETLICFMVGHLSLIRGS, the amyloid nucleation score is reported as “inactive”. For EASNCFAIRHFENKFAVETLICFMW, the amyloid nucleation score was 8.09. For EASNCFAIRHFENKFAVETLICFMYRLVWTHVCR, the amyloid nucleation score was 5.33. Work on EASNCFAIRHFENKFAVETLICFNAFTVDHSNVR yielded an amyloid nucleation score of 7.85. In the case of EASNCFAIRHFENKFAVETLICFNAYVVIVYEFM, the amyloid nucleation score is reported as “inactive”. EASNCFAIRHFENKFAVETLICFNGLVVPVRMLG gave an amyloid nucleation score of 3.87. With EASNCFAIRHFENKFAVETLICFNLFCLVQCRTY the amyloid nucleation score was “inactive”. EASNCFAIRHFENKFAVETLICFNPLCWWKLLSG showed an amyloid nucleation score of 7.37. For EASNCFAIRHFENKFAVETLICFNRAEHEVGGPG, the amyloid nucleation score was “inactive”.

Reference: the supplement of paper PMC12067230
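Further: [psi-pin-] Saccharomyces cerevisiae expressing SupN fusions, induced by 100 µM Cu2SO4, selected 7 d at 30 °C without adenine and uracil, scored by deep sequencing of output versus input.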
